# Results reported in PubChem BioAssay AID651820 (National Center for Advancing Translational Sciences (NCATS), 2012).
# Among all 340,000 compounds or so, about 12,000 (3.5%) were called active. The shares of active, inactive and inconclusive entries below differ from those in the screen. Calls follow the shape of the dose curve; as a rule, active = well fitted inhibition curve with a large enough effect; inconclusive = small, poorly fitted or top-dose-only effect, or another doubt; inactive = no such curve, though single readings can be large or run the other way. No potency is given beside an inconclusive call; the fits are too rough.
# Assay: qHTS Assay for Inhibitors of Hepatitis C Virus (HCV)
# Settings: Huh7.5.1 HCVcc-Cre (HCVcc is cell-culture hepatitis C virus) infection, luciferase reporter, 44 h; activity change, negative = inhibition: at 41.8 µM (top of the series)
# Procedure, shortened: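 Antiviral activity was scored by luciferase reporter output from cells infected with HCVcc-Cre (~0.5 moi) in presence of compound, 44 h infection period, cells seeded 1,000/well 4 h prior.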
# % is scaled to controls: 0 for no effect and ±100 for the full control effect; potency is read from the fitted curve at half-maximal effect; tags tell the direction and shape of the fitted curve.
SMILES,Potency,"activity change, negative = inhibition"
Cc1nc(-c2cccc(NC(=O)c3cccs3)c2)cs1,"inconclusive [inhibitor, partial curve]",
O=C(c1ccc(-c2ccccc2Cl)o1)N1CCC1,"inconclusive [inhibitor, partial curve]",
CCCn1c(O)c(N=NC(=O)c2cccnc2)c2cc(Br)ccc21,"inconclusive [inhibitor, partial curve]",
Nc1cc[n+](CC(=O)Nc2ccccc2)cc1,"inconclusive [inhibitor, single point]",
Cc1cc(Nc2ccccc2)nn1C(=O)c1ccc([N+](=O)[O-])cc1,"inconclusive [inhibitor, partial curve]",
COc1ccc(S(=O)(=O)N(C)CC(=O)Nc2ccc3c(c2)OCO3)cc1OC,"inconclusive [inhibitor, single point]",
CC(=O)Nc1cccc(Oc2ccc(-c3noc(C)n3)cc2)c1,"inconclusive [inhibitor, partial curve]",
O=C1CCCC2=C1C(c1cccs1)n1nc(SCc3ccccc3F)nc1N2 (stereo unspecified),"inconclusive [inhibitor, single point]",
Cc1cccc(N2CCN(C(=O)C3CCN(c4ncnc5c4nc4n5CCCCC4)CC3)CC2C)c1 (stereo unspecified),active: 5.62 µM,
COc1ccc(-n2c(C)cc(C3=NNC(=NC4CC4)SC3)c2C)cc1,"inconclusive [inhibitor, partial curve, poor fit]",
Cc1ccc2c(c1)C1CC(C)(O2)N(c2cccc(C(=O)NC3CCN(Cc4ccccc4)CC3)c2)C(=O)N1 (stereo unspecified),"inconclusive [inhibitor, single point]",
CCOC(=O)N1CCN(C(=O)c2ccc(Cn3c(=S)[nH]c4ccc(Br)cc4c3=O)cc2)CC1,"inconclusive [inhibitor, partial curve]",
CC(=O)Nc1ccc(NC(=O)[C@@H](NC(=O)c2ccccc2F)C(C)C)cc1,,inactive: 11.8%
CC(=O)Nc1cc(-c2nn(C)c(=O)c3ccccc23)ccc1N1CCOCC1,"inconclusive [inhibitor, full curve, poor fit]",
Cc1cc(NC(=O)COc2ccc(Cl)cc2Cl)n(CCC#N)n1,"inconclusive [inhibitor, full curve, poor fit]",
CCOc1nc(N2CCCCC2)nc(-n2cc(-c3ccccc3)nn2)n1,,inactive: 4.01%
Nc1ccc(-c2cc3ccccc3c(=O)o2)cc1,"inconclusive [inhibitor, single point]",
C#CCOCCOCCOCCNc1nc(N2CCN(C(=O)[C@H](CCC(=O)O)n3cc(C(N)[C@H](C)CC)nn3)CC2)nc(N2CCN(C(=O)[C@H](CCC(=O)O)n3cc(C(N)[C@H](C)CC)nn3)CC2)n1 (stereo partly specified),"inconclusive [inhibitor, single point]",
CCc1cc(-c2[nH]ncc2-c2ccc([N+](=O)[O-])cc2)c(O)cc1OC,"inconclusive [inhibitor, partial curve, poor fit]",
O=C(Oc1c(Br)cc([N+](=O)[O-])cc1Br)c1cccnc1,,inactive: 3.97%
O=C(C1CCCN(S(=O)(=O)c2cc(Cl)ccc2Cl)C1)N1CCCCCC1 (stereo unspecified),"inconclusive [inhibitor, single point]",

SMILES,Potency,"activity change, negative = inhibition"
COc1ccc([N+](=O)[O-])cc1NC1CCN(C(=O)c2cccs2)CC1,"inconclusive [inhibitor, single point]",
N#CC1(NC(=O)CN2C(=O)c3ccccc3C2=O)CCCCC1,,inactive: 13.6%
COc1ccccc1N1CCN(C(=O)c2ccccc2N(C)S(=O)(=O)c2ccc(C)cc2)CC1,"inconclusive [inhibitor, single point]",
Cc1ccc(/C=N/n2c(C)nc3ccccc3c2=O)o1,,inactive: 29.9%
O=C(CSc1ncccn1)Nc1ccc(Cl)c(S(=O)(=O)N2CCOCC2)c1,"inconclusive [inhibitor, single point]",
CS(=O)(=O)N(CC(=O)N1CCN(c2ccccc2F)CC1)c1cc(C(F)(F)F)ccc1Cl,"inconclusive [inhibitor, single point]",
NS(=O)(=O)c1ccc(CCNCc2cc(Br)ccc2OCc2ccccc2F)cc1,"inconclusive [inhibitor, single point]",
N#CCC(=O)N/N=C\c1cccc(OC/C=C/c2ccccc2)c1,"inconclusive [inhibitor, single point]",
Cc1cccc(-c2noc(CN(C(=O)c3ccc(Br)o3)C(C)C)n2)c1,"inconclusive [inhibitor, single point]",
COc1cc(NC(=O)c2cc3nc(-c4ccccc4)cc(-c4ccccc4)n3n2)cc(OC)c1OC,"inconclusive [inhibitor, full curve]",
Cc1ccc(O)c(C=Nc2cc(C)ccc2O)c1,,inactive: -4.63%
COc1ccc(C(=O)NCCc2c[nH]c3ccccc23)cc1S(=O)(=O)N1CCCCC1C (stereo unspecified),"inconclusive [inhibitor, partial curve]",
Cc1cccc(Oc2ncc(-c3ccc(Cl)cc3)cn2)c1C,"inconclusive [inhibitor, single point]",
O=c1cc(CSc2nc3ccccc3[nH]2)c2ccccc2[nH]1,"inconclusive [inhibitor, partial curve]",
COc1cc(-c2nnc(NC(=O)CS(=O)(=O)c3ccc(F)cc3)o2)cc(OC)c1OC,,inactive: -10.1%
O=C(NCCS(=O)(=O)NCc1ccc2c(c1)OCO2)c1ccccc1,,inactive: 31.2%
COc1ccc(C(=O)Nc2ccc3c(c2)nc2n3CCSC2)cc1,"inconclusive [inhibitor, single point]",
COc1ccc(NC(=O)c2cccnc2NCCc2ccccc2)cc1,"inconclusive [inhibitor, partial curve]",
Cc1ccc(C)c(N2CCN(C(=O)C3CCN(S(=O)(=O)c4c(C)noc4C)CC3)CC2)c1,"inconclusive [inhibitor, full curve]",
CCOC(=O)N1CCN(Cc2ccc(O)c3ncccc23)CC1,active: 4.47 µM,
